Whole data set: some 110,000 compounds, median “z-score” near -0.1, cut for the highest 2% near 2. The list shows a part of the results.
target: Metabotropic glutamate receptor 8 (Rattus norvegicus) (UniProt P70579); assay: rat mGluR8 modulators via GIRK flux, primary screen, cell-based, thallium flux, HTS (AID 488969); settings: HEK293 rat mGluR8, GIRK (G protein-gated inwardly rectifying potassium channel) thallium flux, FluoZin2; at 10 µM; stronger effect = higher value; submaximal glutamate (EC20) added with thallium
Sequence of UniProt P70579 (P70579 whole entry, looked up): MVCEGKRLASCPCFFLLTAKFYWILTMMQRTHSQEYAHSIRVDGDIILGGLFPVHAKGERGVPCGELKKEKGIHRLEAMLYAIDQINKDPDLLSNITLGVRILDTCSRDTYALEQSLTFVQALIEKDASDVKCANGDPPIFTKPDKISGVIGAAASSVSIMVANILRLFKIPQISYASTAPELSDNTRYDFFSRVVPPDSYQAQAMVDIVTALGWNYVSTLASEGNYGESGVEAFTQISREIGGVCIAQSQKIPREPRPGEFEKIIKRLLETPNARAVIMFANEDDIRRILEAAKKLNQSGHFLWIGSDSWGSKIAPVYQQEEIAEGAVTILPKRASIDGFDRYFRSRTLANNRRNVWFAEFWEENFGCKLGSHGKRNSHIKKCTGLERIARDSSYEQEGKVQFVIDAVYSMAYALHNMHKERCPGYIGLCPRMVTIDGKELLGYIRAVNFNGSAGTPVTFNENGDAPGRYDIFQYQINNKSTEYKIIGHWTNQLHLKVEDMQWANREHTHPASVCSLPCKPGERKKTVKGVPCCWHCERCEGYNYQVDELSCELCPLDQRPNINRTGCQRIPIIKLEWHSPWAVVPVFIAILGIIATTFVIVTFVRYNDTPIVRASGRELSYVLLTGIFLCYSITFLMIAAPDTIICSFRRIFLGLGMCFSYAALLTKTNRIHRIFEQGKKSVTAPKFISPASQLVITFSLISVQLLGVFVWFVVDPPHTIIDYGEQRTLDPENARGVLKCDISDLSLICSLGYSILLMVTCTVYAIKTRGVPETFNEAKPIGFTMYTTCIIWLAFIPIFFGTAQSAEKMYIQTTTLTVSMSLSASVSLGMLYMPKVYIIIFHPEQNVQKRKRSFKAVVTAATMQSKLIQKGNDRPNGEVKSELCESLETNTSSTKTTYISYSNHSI

SMILES | z-score
O=c1c2ccccc2c(-c2ccccc2)nn1-c1ccc(Cl)c(Cl)c1 | -0.224
CC(OC(=O)c1ccc2c(c1)C(=O)N(Cc1ccncc1)C2=O)C(=O)Nc1cccc(Cl)c1Cl (stereo not given) | 0.365
O=C(CSc1ncnc2scc(-c3ccc(Cl)cc3)c12)NCc1ccc2c(c1)OCO2 | -0.262
Cc1cc(C)n(C2=NS(=O)(=O)c3ccccc32)n1 | -0.0598
C=CCn1c(CCNC(=O)c2cccs2)nnc1SCC(=O)Nc1cccc(Cl)c1C | -0.184
COc1cccc(OCc2nc3c4cnn(-c5ccccc5)c4ncn3n2)c1 | 0.0686
CS(=O)(=O)Nc1ccc(C(=O)NCc2ccc3c(c2)OCO3)cc1 | -0.182
O=C(O)c1cccc(CSc2nnc(COc3ccccc3)o2)c1 | -0.828
O=C(CC(c1ccccc1)c1ccccc1O)NCc1ccco1 (stereo not given) | -0.155
N#Cc1cccc(Oc2ccc(-c3cnc4ccccc4n3)cc2)c1C#N | 0.258
CN(C)c1cccc(NC(=O)C2(C)CC2(Cl)Cl)c1 (stereo not given) | -0.194
COc1cc2[nH]c(=O)n(Cc3ccc(C(=O)NC4CCCC4)cc3)c(=O)c2cc1OC | 0.0931
COc1ccc(OC)c(NC(=O)CSc2nnnn2-c2ccccc2F)c1 | -0.231
CCOC(=O)C(=O)/C(=C\N(C)C)c1onc(-c2ccccc2Cl)c1C(=O)OC | 0.152
CC1CCCCN1C(=O)Cn1cc(C=O)c2ccccc21 (stereo not given) | 0.00317
Cc1ccc(C)c(NC(=O)C(Sc2nc3ccc(C)cc3[nH]2)c2ccccc2)c1 (stereo not given) | -0.188
CCn1c(SCC(=O)NCc2ccco2)nc2c(c1=O)SC(C)C2 (stereo not given) | -0.332
CC(C)NC(=O)c1noc2cc([N+](=O)[O-])ccc12 | 0.0562
Cc1occc1C(=O)N/N=C/c1cccnc1 | 0.302
Cn1c(C(=O)N2CCN(C(=O)c3ccco3)CC2)cc2c(=O)n3ccccc3nc21 | 0.0164
O=C(Nc1cccc(C(F)(F)F)c1)N1CCN(C(=O)Nc2cccc(C(F)(F)F)c2)CC1 | -0.185
CC(=O)c1c(C)n(C)c2ccc(OC(=O)c3ccco3)cc12 | 0.0386
O=C(c1cnn2c(C(F)(F)F)cc(-c3ccc4c(c3)OCO4)nc12)N1CCCC1 | -0.369
Clc1ccc(OCc2nc(-c3ccc(Br)o3)no2)cc1 | -0.414

SMILES | z-score
O=C(Cc1ccc(NS(=O)(=O)c2ccc(F)cc2)cc1)NCc1ccccc1 | -0.136
Brc1ccc(Oc2nnnn2-c2ccccc2)cc1 | 0.0613
CCn1c(CNc2ccc(OC)cc2)nnc1SCC(=O)N1CCCc2ccccc21 | 0.461
CC1=NN(C(C#N)c2cccc([N+](=O)[O-])c2)C(C)(C)C1 (stereo not given) | -0.192
Cc1ccc(S(=O)(=O)NNC(=O)Nc2ccc(Cl)cc2)cc1 | -0.126
NS(=O)(=O)c1ccc(CCNC(=O)COC(=O)CCSc2ccc(Cl)cc2)cc1 | 0.403
O=C1c2ccccc2C(=O)N1c1ccc(-c2nc3ccccc3o2)cc1 | 0.248
CC1CCN(C2=NC(=O)/C(=C/c3cn[nH]c3-c3ccccc3)S2)CC1 | 0.356
O=C(NCC1CCCO1)Nc1ccccc1 (stereo not given) | -0.264
Cc1ccccc1OCC(=O)Nc1ccc(Cc2ccncc2)cc1 | -0.331
O=C(Nc1ccc(F)cc1)c1cccnc1N1CCOCC1 | 1.11
COc1cc(OC)cc(C(=O)NC2CCN(CC(=O)Nc3cccc4ccccc34)CC2)c1 | -0.467
Cc1ccc(NC(=S)NCc2ccc3c(c2)OCO3)c(C)c1 | -0.105
Cc1ccc(S(=O)(=O)N2CCOCC2)cc1C(=O)N1C(=O)c2cccc(N)c2C1=O | -0.279
CCOc1cc(C(=O)N2CCOCC2)ccc1OCc1ccccc1 | -0.298
Cc1ccc2c(N)c(C(=O)N(c3ccccc3)c3ccccc3)sc2n1 | -0.28
CC(C)(C)c1ccc(COC(=O)Nc2ccc(F)cc2)cc1 | -0.203
COc1cc2cc(CN(CCO)C(=O)c3cccs3)c(=O)[nH]c2cc1OC | -0.168
CCOC(=O)CN1C(=O)C(O)(CC(=O)c2cccc(OC)c2)c2ccccc21 (stereo not given) | 0.641
COCn1c(-c2ccc(OC)cc2)nc2ccccc21 | -0.0802
Cn1c(CSCc2ccc(Cl)cc2)nnc1SCC(=O)Nc1nc2ccccc2s1 | 0.543
Cc1cc(C)cc(NCCC#N)c1 | 0.0563
Nc1nnnn1/N=C/c1ccccn1 | -0.0914
CCC(c1nnc(SCCNCCO)n1CCN1CCOCC1)N(C)C (stereo not given) | -0.0687

SMILES | z-score
Cc1ccc(CNC(=O)C2CCCN(Cc3cnn(-c4ccccc4)c3-n3cccc3)C2)cc1 (stereo not given) | 0.263
CC(C)OC(=O)CSc1nnc(-c2ccco2)n1N | 0.134
Cc1cc(C)n(-c2cc(N3CCN(S(=O)(=O)c4ccc5ccccc5c4)CC3)ccc2[N+](=O)[O-])n1 | -0.296
CN(Cc1ccccc1)C(=O)CCc1ccccc1 | -0.144
CCS(=O)(=O)Nc1ccc(-c2cc(-c3ccccc3)c3cc(C)ccc3n2)cc1 | -0.14
Cc1cccc(NC2=C(Cl)C(=O)OC2NC(=O)c2ccccc2)c1 (stereo not given) | -0.108
c1ccc(-c2nc(CSc3n[nH]c(-c4cccs4)n3)cs2)cc1 | 0.259
Cc1ccc(-c2nnn(CC(=O)N(c3ccccc3)C(C(=O)NCC3CCCO3)c3ccc(Cl)cc3)n2)cc1 (stereo not given) | -0.203
CC(CN(C)Cc1ccccc1)OC(=O)c1cccc(F)c1 (stereo not given) | -0.189
CCOc1ccc(C(=O)Nc2ccc(-c3nc4ccccc4[nH]3)cc2)cc1[N+](=O)[O-] | -0.0953
Nc1cc(=O)[nH]c(SCC(=O)N2CCCc3ccccc32)n1 | -0.0699
CCOC(=O)c1ccc(N2CCN(c3ccccc3F)CC2)c(NC(=O)Nc2ccccc2)c1 | -0.0534
NC(=O)COC(=O)CC(NC(N)=O)c1ccc(Cl)cc1 (stereo not given) | 0.0124
CCCOc1ccc2c3c(c(=O)oc2c1)CCCC3 | -0.349
CC(=O)NCN1CCN(CNC(C)=O)CC1 | -0.549
COc1cccc(C(=O)Nc2ccc(F)c(F)c2F)c1 | -0.113
CC(C)COc1ccc2[nH]c3c(c2c1)CCCC3=O | -0.601
O=C(N/N=C/c1c(O)ccc2ccccc12)c1cccc(C(F)(F)F)c1 | -0.0953
O=C(c1ccc2c(=O)n(-c3ccccc3)c(=O)[nH]c2c1)N1CCN(c2ccc(F)cc2)CC1 | -0.782
Fc1ccc(OCc2nnc(SCCN3CCOCC3)o2)cc1 | 0.319
CCCCC1OC23CCCCC2C(C#N)(C(=N)O3)C1(C#N)C#N (stereo not given) | -0.383
Cc1ccc(/C=[N+](/[O-])C2SC(=S)N(C)C2(C)C)cc1 (stereo not given) | -0.232
